# Laboratory results taken from the supplement of paper PMC11283458.
# The list shows a part of the results. Most values come without repeats; read them as rough.
# Key:
# Experiment in all cases: delta PSI of alternative exon relative to 0.4% DMSO control (RT-PCR) (percentage points); higher = more exon inclusion
# Conditions in all cases: concentration: not stated (optimised per compound); Neuro-2a
# [1] = test system: Ergic3 microexon (endogenous)
# Method: (§1)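 Reads PSI of the Mef2d reporter microexon and of endogenous mouse neural alternative exons. dPSI is relative to the 0.4% DMSO control, single replicate.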
# [2] = test system: Mgrn1 alternative exon (endogenous)
# Method: as §1
# [3] = test system: Zdhhc20 alternative exon (endogenous)
# Method: as §1
# [4] = test system: Mast2 alternative exon (endogenous)
# Method: as §1
# [5] = test system: Asph alternative exon (endogenous)
# Method: as §1
# [6] = test system: Trappc9 microexon (endogenous)
# Method: as §1
# 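Note: exons read include endogenous Mef2d, Mast2, Ergic3 and Trappc9 microexons plus the longer neural-regulated Zdhhc20, Mgrn1 and Asph cassette exons, alongside the reporter microexon.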
SMILES,delta PSI of alternative exon [1],delta PSI of alternative exon [2],delta PSI of alternative exon [3],delta PSI of alternative exon [4],delta PSI of alternative exon [5],delta PSI of alternative exon [6]
CCN1C(=CC(=S)Nc2ccccc2)Sc2ccccc21,1.96,5.69,1.87,–,–,–
CCN(CC)Cc1ccc2cc(COC(=O)Nc3ccc(C(=O)NO)cc3)ccc2c1 [Givinostat],15.7,-3.57,21.9,15.9,–,–
Cc1ccc(S(=O)(=O)N/N=C/c2cc(Cl)ccc2O)cc1,-19.9,26.2,25,21.2,–,–
N#Cc1c(-c2cccs2)oc(-n2cccc2)c1-c1cc(Br)cs1,-11.6,1.58,4.23,–,–,–
COc1ccc(C=C2CCCc3ccccc3C2=O)cc1,-8.38,3.73,-2.81,–,–,–
O=C(/C=C/c1ccc(CN(CCO)CCc2c[nH]c3ccccc23)cc1)NO,9.68,9.32,22.2,16.9,–,–
CCCNC(=O)Nc1ccc(OC(F)(F)F)cc1,-9.96,10.1,2.49,1.49,–,–
C(=C\c1ccccc1)/C(=N/Nc1ccccc1)c1ccccc1,-4.27,-2.99,3.44,1.88,–,–
COc1cc2c(cc1O)CC[C@@H]1[C@@H]2CC[C@]2(C)[C@@H](O)CC[C@@H]12 [2-Methoxyestradiol],-18.1,5.1,-1.77,-4.47,–,–
CC(=O)Nc1ccc(-c2ccc(NC(C)=O)cc2)cc1,-7.4,-3.65,3.08,-0.471,–,–
O=S(=O)(N/N=C/c1cc(Cl)cc(Cl)c1O)c1ccc(Cl)cc1,-23.6,25.2,23.8,–,–,–
O=C(C=Cc1cc([N+](=O)[O-])ccc1Sc1ccc(C(F)(F)F)cn1)Nc1ccccc1,–,–,0.483,–,1.31,-0.222
Cn1ncc(C(=O)Nc2ccc(Cl)c(Cl)c2)c1[N+](=O)[O-],-19.7,9.63,7.48,–,–,–
S=C(NN=Cc1ccccn1)NC1CC2C=CC1C2 (configuration not stated),-1.78,5,2.11,–,–,–
NC(=NOC(=O)c1c(F)cccc1Cl)c1ccc([N+](=O)[O-])o1,-10.7,16.9,-2.56,–,–,–
CC1(COc2ccc3c(c2)ncn3-c2ccc3cccc(N4CCC(N)CC4)c3n2)COC1 [Crenolanib],-10.7,10.7,13.2,5.57,–,–
O=C1OC(CC(=O)c2csc3ccccc23)c2ccccc21 (configuration not stated),-7.88,4.14,0.284,1.61,–,–
C(=NNc1ccc2ccccc2n1)c1ccccn1,-13,2.55,0.347,–,–,–

SMILES,delta PSI of alternative exon [1],delta PSI of alternative exon [2],delta PSI of alternative exon [3],delta PSI of alternative exon [4],delta PSI of alternative exon [5],delta PSI of alternative exon [6]
Cc1cc(C(=O)NOCCO)c(Nc2ccc(I)cc2F)n(C)c1=O,-1.71,8.39,15.9,–,–,–
Cc1[nH]c2ccccc2c1CCNCc1ccc(/C=C/C(=O)NO)cc1 [Panobinostat],11.5,1.09,23,–,–,–
CC(/C=C/C(=O)NO)=C\[C@@H](C)C(=O)c1ccc(N(C)C)cc1 [Trichostatin A],8.29,2.13,24.5,–,–,–
CN(C)S(=O)(=O)c1ccc2c(c1)/C(=C/c1cc3c([nH]1)CCCC3)C(=O)N2,-10.7,2.85,1.12,–,–,–
c1ccc(C2=Nc3ccccc3NC(c3ccccc3)C2)cc1 (configuration not stated),-1.15,1.58,-0.229,–,–,–
Cc1onc(-c2ccccc2)c1C(=O)Nc1c(C(C)(C)C)nn(C)c1C(C)(C)C,–,–,-1.88,–,0.125,-2.21
Cc1ccc(S(=O)(=O)Nc2ccc3ncccc3c2)cc1,0.0478,16,27.8,–,–,–
CC(=O)Nc1cccc(-n2c(=O)n(C3CC3)c(=O)c3c(Nc4ccc(I)cc4F)n(C)c(=O)c(C)c32)c1 [Trametinib],-0.125,9.89,19.2,23.9,–,–
Nc1nc(=S)c2ncn([C@@H]3O[C@H](CO)[C@@H](O)[C@H]3O)c2[nH]1 [Thioguanosine],–,–,-11.4,–,-14.3,0.445
CC1=C(/C=C/C(C)=C/C=C/C(C)=C/C(=O)Nc2ccc(O)cc2)C(C)(C)CCC1 [Fenretinide],-4.09,4.02,0.176,–,–,–
N#Cc1c(O)nsc1Nc1ccc(Cl)cc1,-17.5,18.4,-5.32,–,–,–
CCCCc1nc2cc(/C=C/C(=O)NO)ccc2n1CCN(CC)CC,12.5,3.92,21.5,–,–,–
CNC(=S)N/N=C/c1ccccc1O,–,–,4.36,–,1.67,-1.03
COc1ccc(C=Cc2nc3ccccc3s2)cc1OC,-2.37,3.93,-2.16,-0.0263,–,–
O=C(Nc1cccc([N+](=O)[O-])c1)C(C(=O)Nc1cccc([N+](=O)[O-])c1)C12CC3CC(CC(C3)C1)C2,-14,7.78,0.503,-0.646,–,–
O=C(CCCCCN1C(=O)c2cccc3cccc(c23)C1=O)NO [Scriptaid],6.1,-5.38,20.5,–,–,–
O=C(Nc1ccc2[nH]nc(-c3ccncc3)c2c1)[C@@H]1CCN(CC(=O)N2CCN(c3ccc(-c4ncccn4)cc3)CC2)C1,-2,5.72,11.2,4.11,–,–
Cn1cc(CNCC2CCN(c3ncc(C(=O)NO)cn3)CC2)c2ccccc21,9.18,0.345,20.2,12.5,–,–
